Laboratory results taken from patent US20250163119A1, “COMPOUNDS FOR THE TREATMENT OF DIABETES OR OBESITY” (Eli Lilly and Company, priority 2023, published 2025).
Several values for one entry are separate records, joined by “and”; a condition that tells them apart may be missing. Equal values may be shown once. For at least one compound, name, drawing or mass did not settle the structure. Some compounds share one wording; it may come from a single statement. *1 amine or outer side, *2 acyl side, *3 side chain or, on linkers, in order; H or OH if unused. Where a SMILES comes first, the peptide text is derived from it. Side-chain parts run from the residue outwards. [ ]: non-standard residue; d: D form. The star is where a group is joined. C20 diacid = O=C(O)CCCCCCCCCCCCCCCCCCC(=O)*; γGlu = O=C(O)[C@H](CCC(=O)[*:2])N[*:1]; εLys = N[C@@H](CCCCN[*:1])C(=O)[*:2]; pGlu = O=C1CC[C@@H](C(=O)O)N1; αMeL = CC(C)C[C@](C)(N)C(=O)O; AEEA = NCCOCCOCC(=O)O; Aib = CC(C)(N)C(=O)O

How the values were obtained:
human CRHR2 = molecular target: T1, human CRHR2 (Homo sapiens, UniProt Q13324); assay: Human CRHR2 cAMP assay (HTRF) in HEK293 cells stably expressing human CRHR2; format: cell-based; details: HEK293 cells overexpressing human CRHR2; relative EC50, maximum 10 nM human UCN2; mean ± SE; read-out: hCRHR2 cAMP EC50 (pM, ± SE)
T1 construct: expressed in transfected cells
T1 sequence (Q13324 1-438 isoform Q13324-2): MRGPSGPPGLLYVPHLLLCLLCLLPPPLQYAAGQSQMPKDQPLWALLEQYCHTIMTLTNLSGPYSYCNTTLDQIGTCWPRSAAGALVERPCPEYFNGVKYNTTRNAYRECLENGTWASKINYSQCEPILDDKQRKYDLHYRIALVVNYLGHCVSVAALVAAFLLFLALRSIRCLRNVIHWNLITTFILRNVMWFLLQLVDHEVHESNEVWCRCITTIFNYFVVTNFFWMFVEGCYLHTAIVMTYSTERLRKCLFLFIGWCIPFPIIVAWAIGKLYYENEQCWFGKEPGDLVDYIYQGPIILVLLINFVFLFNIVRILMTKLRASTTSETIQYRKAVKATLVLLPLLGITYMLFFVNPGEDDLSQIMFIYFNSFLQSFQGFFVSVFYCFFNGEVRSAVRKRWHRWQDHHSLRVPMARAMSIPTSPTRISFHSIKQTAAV
Procedure: The corticotropin-releasing hormone (CRH) receptor 1 and 2 (CRHR1 and CRHR2) are GPCRs that were functionally coupled to Gs proteins. Stimulation of these receptors results in an increased production of intracellular cAMP, which can be detected using standard in vitro technologies. In vitro activity of peptides was measured by the amount of cAMP formed in human CRHR1 and CRHR2 overexpressed cells.
Human CRHR1 and CRHR2 receptors were stably expressed in human embryonic kidney cells (HEK293) under control of a pcDNA expression vector. The HEK293 cell line was cultured in DMEM 1× (Gibco, 93-0152DK) supplemented with 10% FBS, 1 mM sodium pyruvate, 1×MEM NEAA, 1× GlutaMAX and 10 mM HEPES. The plasmids of human CRHR1-pQCXIP (T7364) and human CRHR2b-R2683puro (T16761) DNA were transfected into HEK293 cells using Lipo fectAMINE 3000 Transfection reagent (Invitrogen, L3000001). After 20 days under selection, the mRNA levels from different clones were measured to confirm the expression of human CRHR1 and CRHR2 genes. To determine the function of over-expressed CRHR cells, the intracellular cAMP levels in response to human UCN1 and UCN2 were measured and compared to the expression of CRHR1 and CRHR2 mRNA in each clone.
Human CRHR1 cells were cultured in DMEM 1× (Gibco, 93-0152DK) supplemented with 10% FBS, 1 mM sodium pyruvate, 1×MEM NEAA, 1×GlutaMAX, 10 mM HEPES, and 800 μg/ml G418. Human CRHR2 cells were cultured at the same media (DMEM 1×, 10% FBS, 1 mM sodium pyruvate, 1×MEM NEAA, 1×GlutaMAX, 10 mM HEPES) in the presence of 0.5 ug/mL puromycin. Cultured cells were grown to 90% confluency and harvested. […]
The amount of intracellular cAMP was quantitated using HTRF technology (Homogeneous Time Resolved Fluorescence; Cisbio) as per vendor instructions. […] The HTRF signal was immediately detected using an Envision plate reader (Perkin-Elmer) to calculate the ratio of fluorescence at 665 to 620 nm.
Raw fluorescence data for concentration curves of the peptides in Table 2 and Table 3 were converted to cAMP amount (pmol/well) using a cAMP standard curve generated for each experiment.

[1] = In vivo Diet Induced Obesity (DIO) model, chronic dose administration; design: species or system C57BL6 mice; details: DIO mice; for Fat mass change / lean mass change: EchoMRI day 1 vs day 14; for Fat mass change / lean mass change / body weight change / fasting blood glucose: mean; for body weight change: day 1 to day 14; for fasting blood glucose: day 15 after overnight fast
[2] = Association state determination by Sedimentation Velocity Analytical UltraCentrifugation (SV-AUC); format: physicochemical; details: 1 mg/mL, 5 mM phosphate, 20° C.
Procedure: SV-AUC was performed at 20° C. using a Beckman Optima with AN 60 Ti rotor and final rotor speed of 60,000 rpm. Peptides were dialyzed into 5 mM phosphate pH 7 or 1× phosphate buffered saline (PBS) pH 7.2. Samples were adjusted to the desired concentration (0.1 mg/mL, 1 mg/mL, or 10 mg/mL) using relevant buffer as needed. Both samples and buffer were passed through […] PVDF centrifugal filter units. The filtered samples were loaded into the sample sectors of the cells; filtered buffer alone was loaded in the reference sector of the cells. A Wavelength Scan was performed as the first step to choose a suitable lambda […] value for the given compound with 1-1.2 OD at the concentration(s) tested; this value was generally between 225 nm and 254 nm and used for Method Scan in the next step. In the Method Scan, both absorbance and interference detection modules were used. Temperature equilibration was set as first stage with 0 rpm rotor speed for 3 hours. Sedimentation velocity was set as second stage with rotor speed at 60,000 rpm. 300 scans with frequency of 60 seconds or 500 scan counts with frequency of 120 seconds were performed at the designated wavelength. Data were analyzed with SEDFIT software wherein a continuous c(s) distribution model was applied; the setting of relevant parameters is shown in Table 4 and Table 5; sedimentation coefficient (s) values were reported in Svedherg units (S).
The experiment to characterize a compound comprising SEQ ID NO:54 was performed at 300 scan counts with frequency of 60 seconds; for all other tested polypeptides, the experiments were performed at 500 scan counts with frequency of 120 seconds.

[3] = 0.3 nmol/kg s.c. on days 1, 4, 7, 10, 13
[4] = 1 nmol/kg s.c. on days 1, 4, 7, 10, 13
[5] = 3 nmol/kg s.c. on days 1, 4, 7, 10, 13
[6] = 10 nmol/kg s.c. on days 1, 4, 7, 10, 13
[7] = 30 nmol/kg s.c. on days 1, 4, 7, 10, 13
[8] = 100 nmol/kg s.c. on days 1, 4, 7, 10, 13
[9] = 300 nmol/kg s.c. on days 1, 4, 7, 10, 13
[10] = dose response 0.3-300 nmol/kg s.c., top fixed to vehicle mean

CC[C@H](C)[C@H](NC(C)=O)C(=O)N[C@H](C(=O)N[C@H](C(=O)N[C@@H](CO)C(=O)N[C@@](C)(CC(C)C)C(=O)N[C@@H](CC(=O)O)C(=O)N[C@@H](C(=O)N1CCC[C@H]1C(=O)N[C@H](C(=O)NC(C)(C)C(=O)N[C@@](C)(CC(C)C)C(=O)N[C@@H](CC(C)C)C(=O)N[C@@H](CCC(N)=O)C(=O)N[C@H](C(=O)N[C@@H](CCCCN)C(=O)N[C@@H](CC(C)C)C(=O)N[C@@H](CCC(=O)O)C(=O)N[C@@H](CCC(N)=O)C(=O)N[C@@H](CCC(=O)O)C(=O)N[C@@H](CCCNC(=N)N)C(=O)N[C@@H](C)C(=O)N[C@@H](CCC(=O)O)C(=O)N[C@@H](CCCCN)C(=O)N[C@@H](C)C(=O)N[C@@H](CCCNC(=N)N)C(=O)N[C@@H](CCC(N)=O)C(=O)N[C@@H](CCC(N)=O)C(=O)N[C@@H](C)C(=O)N[C@@H](CCCCNC(=O)CC[C@H](NC(=O)CC[C@H](NC(=O)CCCCCCCCCCCCCCCCCCC(=O)O)C(=O)O)C(=O)O)C(=O)N[C@@H](CCC(=O)O)C(=O)N[C@@H](CC(N)=O)C(=O)N[C@H](C(=O)N[C@@H](CCC(=O)O)C(=O)N[C@H](C(=O)N[C@@H](CC(C)C)C(=O)N[C@@H](C)C(=O)N[C@@H](CCC(N)=O)C(=O)N[C@H](C(N)=O)C(C)C)[C@@H](C)CC)[C@@H](C)O)[C@@H](C)CC)[C@@H](C)CC)C(C)C)[C@@H](C)O)C(C)C [SEQ ID NO: 51, Ac-IVTS αMeL D (D-Val) PI Aib αMeL LQIKLEQERAEKARQQAK((E)2-CO-(CH2)18-CO2H)ENTEILAQV-NH2] (Ac-IVTS[αMeL]D[dV]PI[Aib][αMeL]LQIKLEQERAEKARQQAK([γGlu-γGlu-C20 diacid])ENTEILAQV-NH2)
EC50 (human CRHR2): 8.6 ± 3.2 pM

[pGlu]GSPSGIVTS[αMeL]DVPT[Aib][αMeL]LQKILEQERAEKARQQAK([γGlu-AEEA-εLys-C20 diacid])EAAEILAQV-NH2 [SEQ ID NO: 22, Pyr-GSPSGIVTS αMeL DVPT Aib αMeL LQKILEQERAEKARQQAK(γE-(2-[2-(2-Amino-ethoxy)-ethoxy]-acetyl)-ϵK-CO-(CH2)18-CO2H)EAAEILAQV-NH2]
Fat mass change [1, 3]: -0.92 g | lean mass change [1, 3]: -0.03 g | body weight change [1, 3]: 0.15 g | fasting blood glucose [1, 3]: 105.70 mg/dL | Fat mass change [1, 4]: -0.96 g | lean mass change [1, 4]: 0.42 g | body weight change [1, 4]: 0.67 g | fasting blood glucose [1, 4]: 105.20 mg/dL | Fat mass change [1, 5]: -2.90 g | lean mass change [1, 5]: 0.47 g | body weight change [1, 5]: -1.87 g | fasting blood glucose [1, 5]: 93.92 mg/dL | Fat mass change [1, 6]: -5.56 g | lean mass change [1, 6]: 0.11 g | body weight change [1, 6]: -4.75 g | fasting blood glucose [1, 6]: 93.50 mg/dL | Fat mass change [1, 7]: -8.34 g | lean mass change [1, 7]: -0.56 g | body weight change [1, 7]: -8.82 g | fasting blood glucose [1, 7]: 87.42 mg/dL | Fat mass change [1, 8]: -8.86 g | lean mass change [1, 8]: -0.67 g | body weight change [1, 8]: -9.72 g | fasting blood glucose [1, 8]: 91.58 mg/dL | Fat mass change [1, 9]: -10.95 g | lean mass change [1, 9]: -0.91 g | body weight change [1, 9]: -12.27 g | fasting blood glucose [1, 9]: 89.25 mg/dL | ED 50 (nmol/kg) for body weight change [1, 10]: 12.50 nmol/kg | ED 50 (nmol/kg) for fasting blood glucose [1, 10]: 0.03 nmol/kg | ED 50 (nmol/kg) for fat mass change [1, 10]: 9.80 nmol/kg | ED 50 (nmol/kg) for lean mass change [1, 10]: Ambiguous | efficacy versus SEQ ID NO:54 for body weight change and fat mass change as measured by ED 50 ([1]; dose response experiments): improvement in efficacy over previous polypeptide SEQ ID NO:54 | Sedimentation Coefficient ([2]; pH 7 + 150 mM NaCl): 1.33 S and 1.82 S | Sedimentation Coefficient ([2]; pH 7): 0.8 S and 1.5 S
